The structures appear in SMILES notation. The list shows a part of the results. Many values rest on one well or one pass, so single values are uncertain.

Consider 28 compounds from the supplement of paper PMC4604168 (melanoma cell lines).

Test in all cases: cell count relative to DMSO control; melanoma cells; higher = more viable cells
Common to all, as to details: library dose: standard library concentration; 72 h

The subject of test [1] is 501Mel.
The test system of test [2] is A101D.
The subject of test [3] is A2058.
Test [4] concerns A375.
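Also: cells treated in 1,536-well plates, then fixed and DAPI-stained, with nuclei counted from automated high-throughput microscope images.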

`O=C(Nc1ccccc1)c1cc([N+](=O)[O-])ccc1Cl` + COc1cc(N2CCC(N3CCN(C)CC3)CC2)ccc1Nc1ncc(Cl)c(Nc2ccccc2S(=O)(=O)C(C)C)n1 [NVP-TAE684] (first compound 10 µM, partner dose 0.4 µM): the cell count turned out to be 56.5% in test [1], 78.4% in test [2], 66.5% in test [3] and 121% in test [4].
Consider `Cc1cc(N2CCOCC2)cc2[nH]c(-c3c(NC[C@@H](O)c4cccc(Cl)c4)cc[nH]c3=O)nc12` + c1cc(-c2cnn3cc(-c4ccc(OCCN5CCCCC5)cc4)cnc23)ccn1 [Dorsomorphin] (first compound 1 µM, partner dose 2 µM), for which the cell count in test [1] was found to be 42.7%; in test [2] it was 84.4%; in test [3], 75.7%; in test [4] it was 86%.
`Cc1cc(N2CCOCC2)cc2[nH]c(-c3c(NC[C@@H](O)c4cccc(Cl)c4)cc[nH]c3=O)nc12` + CCCCCCCCCCCC1=C(O)C(=O)C=C(O)C1=O [Embelin] (first compound 1 µM, partner dose 6 µM): the cell count in test [1] is 57.3%; in test [2], 104%; in test [3], 88.5%; in test [4], 113%.
For `Cn1nnc2c(C(N)=O)ncn2c1=O` [temozolomide] + O=C1NC(=O)/C(=C/c2ccc(-c3ccc(F)cc3O)o2)S1 [AS252424] (first compound 10 µM, partner dose 5 µM), in that order: 68.7%, 80.2%, 42.7% and 129%.
For `O=C(O)c1ccc2c(c1)nc(Nc1cccc(Cl)c1)c1ccncc12` + O=S(=O)(c1ccccc1)N(CC(F)(F)F)c1ccc(C(O)(C(F)(F)F)C(F)(F)F)cc1 [T0901317] (first compound 2 µM, partner dose 7 µM), in that order: 72.3%, 77%, 75.8% and 70.6%.
On the same counts, the results for `Cc1cc(N2CCOCC2)cc2[nH]c(-c3c(NC[C@@H](O)c4cccc(Cl)c4)cc[nH]c3=O)nc12` + N#Cc1c(O)c2c(-c3ccc(-c4ccccc4O)cc3)csc2[nH]c1=O [A769662] (first compound 1 µM, partner dose 10 µM) are 89%, 108%, 97.7% and 124%.
For the compound `Cn1nnc2c(C(N)=O)ncn2c1=O` [temozolomide] + CC(C)CCN1c2nc(Nc3cc(F)c(O)c(F)c3)ncc2N(C)C(=O)C1C [BID1870] (first compound 10 µM, partner dose 1 µM), the cell count in test [1] came out at 65.6%; in test [2] it was 83.4%; in test [3], 58.2%; in test [4] it was 80.9%.
With `Cn1nnc2c(C(N)=O)ncn2c1=O` [temozolomide] + N#Cc1c(O)c2c(-c3ccc(-c4ccccc4O)cc3)csc2[nH]c1=O [A769662] (first compound 10 µM, partner dose 10 µM), the cell count was found to be 82.7% in test [1], 87.1% in test [2], 41.6% in test [3] and 87.7% in test [4].
With `Cc1cc(N2CCOCC2)cc2[nH]c(-c3c(NC[C@@H](O)c4cccc(Cl)c4)cc[nH]c3=O)nc12` + COc1cc2ncnc(Nc3ccc(Oc4ccccc4)cc3)c2cc1OC [SrcI1] (first compound 1 µM, partner dose 10 µM), the cell count in test [1] came to 65.1%; in test [2] it was 64.1%; in test [3], 85.5%; in test [4], 159%.
On the same counts, the results for `O=C(Nc1ccccc1)c1cc([N+](=O)[O-])ccc1Cl` + Cn1cc(/C=C2\C(=O)Nc3cccnc32)c2ccccc21 [GW441756] (first compound 10 µM, partner dose 2 µM) are 81.4%, 97.5%, 88.6% and 149%.
On to `Cn1nnc2c(C(N)=O)ncn2c1=O` [temozolomide] + COC(=O)c1sccc1S(=O)(=O)Nc1ccc(Nc2ccccc2)cc1OC [GSK0660] (first compound 10 µM, partner dose 5 µM), for which the cell count in test [1] came to 79.8%; in test [2], 87.8%; in test [3] it was 47.5%; in test [4] it was 103%.
On the same counts, the results for `O=C(O)c1ccc2c(c1)nc(Nc1cccc(Cl)c1)c1ccncc12` + COc1ccc(COc2ccc(Cc3cnc(N)nc3N)cc2OC)cc1 [GW2580] (first compound 2 µM, partner dose 5 µM) are 68.3%, 94.1%, 102% and 73.4%.
On the same counts, the results for `Cn1nnc2c(C(N)=O)ncn2c1=O` [temozolomide] + COc1cc2ncnc(Nc3ccc(Oc4ccccc4)cc3)c2cc1OC [SrcI1] (first compound 10 µM, partner dose 10 µM) are 93.3%, 68.3%, 53.6% and 174%.
Take `O=C(Nc1ccccc1)c1cc([N+](=O)[O-])ccc1Cl` + CCCCCCCCCCCC1=C(O)C(=O)C=C(O)C1=O [Embelin] (first compound 10 µM, partner dose 6 µM): the cell count in test [1] is 99.1%; in test [2] it was 82.4%; in test [3], 76%; in test [4] it was 117%.
For `O=C(O)c1ccc2c(c1)nc(Nc1cccc(Cl)c1)c1ccncc12` + O=c1cc(-c2cccc3c2Sc2ccccc2S3)oc(N2CCOCC2)c1 [KU55933] (first compound 2 µM, partner dose 5 µM), in that order: 78.2%, 66.9%, 84.3% and 87.1%.
On the same counts, the results for `Cc1cc(N2CCOCC2)cc2[nH]c(-c3c(NC[C@@H](O)c4cccc(Cl)c4)cc[nH]c3=O)nc12` + COc1cc(N2CCC(N3CCN(C)CC3)CC2)ccc1Nc1ncc(Cl)c(Nc2ccccc2S(=O)(=O)C(C)C)n1 [NVP-TAE684] (first compound 1 µM, partner dose 0.4 µM) are 71.4%, 92.1%, 57.9% and 98.9%.
On the same counts, the results for `Cc1cc(N2CCOCC2)cc2[nH]c(-c3c(NC[C@@H](O)c4cccc(Cl)c4)cc[nH]c3=O)nc12` + COC(=O)c1sccc1S(=O)(=O)Nc1ccc(Nc2ccccc2)cc1OC [GSK0660] (first compound 1 µM, partner dose 5 µM) are 82.7%, 99.1%, 98.5% and 92.7%.
Consider `O=C(O)c1ccc2c(c1)nc(Nc1cccc(Cl)c1)c1ccncc12` + COC(=O)c1sccc1S(=O)(=O)Nc1ccc(Nc2ccccc2)cc1OC [GSK0660] (first compound 2 µM, partner dose 5 µM), for which the cell count in test [1] amounted to 111%; in test [2], 90.2%; in test [3] it was 88.3%; in test [4], 91.1%.
`Cc1cc(N2CCOCC2)cc2[nH]c(-c3c(NC[C@@H](O)c4cccc(Cl)c4)cc[nH]c3=O)nc12` + COc1ccc(COc2ccc(Cc3cnc(N)nc3N)cc2OC)cc1 [GW2580] (first compound 1 µM, partner dose 5 µM): the cell count is 71.2% in test [1], 97.8% in test [2], 93.1% in test [3] and 98.1% in test [4].
On the same counts, the results for `O=C(Nc1cc(C(F)(F)F)cc(C(F)(F)F)c1)c1cc(Cl)ccc1O` + COc1cc2ncnc(Nc3ccc(Oc4ccccc4)cc3)c2cc1OC [SrcI1] (first compound 0.08 µM, partner dose 10 µM) are 65.7%, 73%, 74.9% and 159%.
Regarding `O=C(O)[C@@H]1[O][Sb](=[O])([O][Sb]2(=[O])[O][C@H]([C@H](O)CO)[C@H](O)[C@H](C(=O)O)[O]2)[O][C@H]([C@H](O)CO)[C@@H]1O` (some centres not stated) [stibogluconate] + Cn1cc(/C=C2\C(=O)Nc3cccnc32)c2ccccc21 [GW441756] (first compound 10 µM, partner dose 2 µM), the cell count in test [1] was determined as 97.6%; in test [2], 72.9%; in test [3] it was 115%; in test [4], 171%.
On the same counts, the results for `O=C(Nc1cc(C(F)(F)F)cc(C(F)(F)F)c1)c1cc(Cl)ccc1O` + CC(C)CCN1c2nc(Nc3cc(F)c(O)c(F)c3)ncc2N(C)C(=O)C1C [BID1870] (first compound 0.08 µM, partner dose 1 µM) are 86.4%, 72.2%, 82% and 118%.
For `O=C(O)c1ccc2c(c1)nc(Nc1cccc(Cl)c1)c1ccncc12` + CC(C)CCN1c2nc(Nc3cc(F)c(O)c(F)c3)ncc2N(C)C(=O)C1C [BID1870] (first compound 2 µM, partner dose 1 µM), in that order: 58.1%, 53%, 64.6% and 77.1%.
For `O=C(Nc1cc(C(F)(F)F)cc(C(F)(F)F)c1)c1cc(Cl)ccc1O` + N#Cc1c(O)c2c(-c3ccc(-c4ccccc4O)cc3)csc2[nH]c1=O [A769662] (first compound 0.08 µM, partner dose 10 µM), in that order: 70.2%, 100%, 132% and 133%.
With `O=C(Nc1ccccc1)c1cc([N+](=O)[O-])ccc1Cl` + Oc1nc(-c2ccc(C(F)(F)F)cc2)nc2c1CSCC2 [XAV939] (first compound 10 µM, partner dose 10 µM), the cell count in test [1] was determined as 82.3%; in test [2], 80.4%; in test [3], 86.8%; in test [4], 79.6%.
For the compound `O=C(Nc1ccccc1)c1cc([N+](=O)[O-])ccc1Cl` + COc1cc2ncnc(Nc3ccc(Oc4ccccc4)cc3)c2cc1OC [SrcI1] (first compound 10 µM, partner dose 10 µM), the cell count stood at 81.1% in test [1], 62.1% in test [2], 93.2% in test [3] and 128% in test [4].
With `O=C(Nc1ccccc1)c1cc([N+](=O)[O-])ccc1Cl` + Oc1cc(-c2nc(-c3ccccc3)[nH]c2-c2ccncc2)ccc1Cl [L779450] (first compound 10 µM, partner dose 1 µM), the cell count came out at 64.4% in test [1], 75.3% in test [2], 90.3% in test [3] and 76.6% in test [4].
On the same counts, the results for `Cn1nnc2c(C(N)=O)ncn2c1=O` [temozolomide] + COc1cc(N2CCC(N3CCN(C)CC3)CC2)ccc1Nc1ncc(Cl)c(Nc2ccccc2S(=O)(=O)C(C)C)n1 [NVP-TAE684] (first compound 10 µM, partner dose 0.4 µM) are 85.8%, 67.9%, 35.4% and 98%.
